In PubChem BioAssay AID1347165 (National Center for Advancing Translational Sciences (NCATS), 2019):
In all, about 220,000 compounds went through this assay and about 5,700 (2.6%) were called active. The inconclusive results got no clear call from the source; some entries with a clear call stand among them for comparison. The call rests on the fitted dose curve; in most records, active means well fitted inhibition curve with a large enough effect; inconclusive means small, poorly fitted or top-dose-only effect; inactive means no such curve, though single readings can be large or run the other way. Potencies of inconclusive entries are doubtful fits and often do not repeat.

What follows are molecules tested against Lysine-specific demethylase 5B (Homo sapiens) (UniProt Q9UGL1) (assay: Primary screen for KDM5B Histone Demethylases FDH-coupled qHTS). Conditions: FDH-coupled NADH fluorescence (FDH is formaldehyde dehydrogenase); activity change, negative = inhibition: at 57.7 µM (top of the series) unless noted.
In short: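 Inhibition is measured as reduced NADH fluorescence generation from FDH coupling to formaldehyde release. Truncated KDM5BΔAP at 200 nM final acts on H3K4me3 peptide (12.5 µM in substrate mix) in pH 7.5 HEPES buffer with Tween-20, 30 min, room temperature.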
Further: nearly all actives have a fitted effect of over 70% in size.
Potency means the concentration at half of the fitted maximal effect; tags describe the fitted curve by direction and shape.
Wherever activity change, negative = inhibition is given: 0% is about no effect.

UniProt Q9UGL1, sequence (Q9UGL1 whole entry, looked up, the tested form may be a part): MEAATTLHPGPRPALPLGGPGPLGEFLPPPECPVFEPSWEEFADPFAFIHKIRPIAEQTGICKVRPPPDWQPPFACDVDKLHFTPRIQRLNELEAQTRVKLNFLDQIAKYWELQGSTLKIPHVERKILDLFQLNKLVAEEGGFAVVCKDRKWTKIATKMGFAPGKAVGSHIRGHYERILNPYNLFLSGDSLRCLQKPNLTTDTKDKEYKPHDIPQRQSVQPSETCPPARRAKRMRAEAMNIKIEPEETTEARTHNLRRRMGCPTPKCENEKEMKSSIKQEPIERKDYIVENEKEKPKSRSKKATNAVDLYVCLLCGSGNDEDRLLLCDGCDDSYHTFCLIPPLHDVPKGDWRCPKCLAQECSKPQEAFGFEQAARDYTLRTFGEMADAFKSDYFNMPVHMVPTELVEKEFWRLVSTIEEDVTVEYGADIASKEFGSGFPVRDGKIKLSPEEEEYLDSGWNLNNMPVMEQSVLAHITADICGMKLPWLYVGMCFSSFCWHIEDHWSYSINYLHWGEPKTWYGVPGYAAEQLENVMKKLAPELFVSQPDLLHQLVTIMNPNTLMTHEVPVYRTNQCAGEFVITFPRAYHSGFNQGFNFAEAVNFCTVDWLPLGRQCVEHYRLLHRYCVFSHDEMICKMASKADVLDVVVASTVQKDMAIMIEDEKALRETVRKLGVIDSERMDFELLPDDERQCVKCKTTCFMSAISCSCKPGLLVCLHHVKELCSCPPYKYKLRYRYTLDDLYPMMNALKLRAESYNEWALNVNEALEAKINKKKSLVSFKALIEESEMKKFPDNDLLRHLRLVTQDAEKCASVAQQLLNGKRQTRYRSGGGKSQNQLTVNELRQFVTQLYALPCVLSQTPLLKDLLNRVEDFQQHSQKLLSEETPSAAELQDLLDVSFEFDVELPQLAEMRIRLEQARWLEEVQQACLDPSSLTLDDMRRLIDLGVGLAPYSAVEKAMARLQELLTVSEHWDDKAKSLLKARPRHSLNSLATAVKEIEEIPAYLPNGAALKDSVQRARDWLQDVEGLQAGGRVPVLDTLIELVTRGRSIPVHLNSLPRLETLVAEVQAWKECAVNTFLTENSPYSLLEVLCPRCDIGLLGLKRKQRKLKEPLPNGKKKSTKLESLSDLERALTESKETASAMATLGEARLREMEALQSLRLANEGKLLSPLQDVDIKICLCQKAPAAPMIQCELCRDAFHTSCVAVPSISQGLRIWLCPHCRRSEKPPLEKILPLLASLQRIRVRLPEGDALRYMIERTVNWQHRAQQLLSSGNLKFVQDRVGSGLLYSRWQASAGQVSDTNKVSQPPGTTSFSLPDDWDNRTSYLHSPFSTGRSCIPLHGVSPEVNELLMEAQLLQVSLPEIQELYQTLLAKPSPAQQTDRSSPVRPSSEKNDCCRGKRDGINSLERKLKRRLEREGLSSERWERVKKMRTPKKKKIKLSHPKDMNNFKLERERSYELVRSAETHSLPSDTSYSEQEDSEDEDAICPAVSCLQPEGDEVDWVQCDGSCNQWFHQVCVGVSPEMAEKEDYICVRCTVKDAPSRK

| Compound | Potency | activity change, negative = inhibition |
| --- | --- | --- |
| COC(=O)c1ccccc1NC(=O)CCC(=O)N1CC(C)Sc2ccccc21 (configuration not stated) | inconclusive: 28.2 µM [inhibitor, single point] |  |
| CC(C)CCN1CCNC(=O)C1CC(=O)N(Cc1nccs1)C1CC1 (configuration not stated) | inconclusive: 22.4 µM [inhibitor, single point] |  |
| COC(=O)C(NC(=O)CCc1c(C)nc2cc(-c3cccc(F)c3)nn2c1C)C(C)C (configuration not stated) | inconclusive: 25.1 µM [inhibitor, single point] |  |
| Cc1ccccc1C(=O)N1CCN(c2oc(C3CC3)nc2C#N)CC1 | inactive |  |
| O=C(CN1CCN(CC(=O)N2CCC(Cc3ccccc3)CC2)CC1)Nc1ccccc1Cl | inactive |  |
| COc1cccc(N2CCN(C(=O)c3cc4c(=O)n(Cc5cccnc5)ccc4nc3C)CC2)c1 | inconclusive: 28.2 µM [inhibitor, partial curve, poor fit] |  |
| CC(C)c1nc2c(c(-c3ccc(O)cc3)n1)CN(Cc1ccsc1)CC2 | inconclusive: 31.6 µM [inhibitor, single point] |  |
| Cc1nc(N2CCCC2)nc(N2CCC3(CC2)OCCCC3O)c1C (configuration not stated) | inconclusive: 2 µM [inhibitor, full curve] |  |
| CCCOc1ccc(-c2nc3ccc(-c4ccc(OC)c(OC)c4OC)cc3o2)cc1 | inconclusive: 12.6 µM [inhibitor, partial curve, poor fit] |  |
| O=C(NCc1ccncc1)c1nc(-c2cccnc2)c2cnccn12 | inconclusive: 20 µM [inhibitor, full curve, poor fit] |  |
| Cc1ccc(CSc2nc(N)cc(N3CCN(CCCO)CC3)n2)cc1 |  | inconclusive: -31.2% [inhibitor] |
| O=C(NC1CCN(c2cc(-c3cccs3)[nH]n2)CC1)c1ccc(Cl)cc1 | inactive |  |
| CCn1c(CCNC(=O)c2ccccc2F)nnc1SCC(=O)N1CCc2ccccc21 | inactive |  |
| O=C(/C=C/C=C/c1cccs1)c1ccc(-c2ccccc2)cc1 | inactive |  |
| COc1ccccc1CNC(=O)c1cnc(N(C)C)nc1 | inconclusive: 28.2 µM [inhibitor, single point] |  |
| COc1ccc(CC(=O)Nc2sc3c(c2C(=O)Nc2cccc(C)c2)CCCCC3)cc1 | inconclusive: 15.8 µM [inhibitor, partial curve, poor fit] |  |
| CCCSc1oc(-c2ccco2)nc1S(=O)(=O)c1ccc(Cl)cc1 | inconclusive: 35.5 µM [inhibitor, partial curve, poor fit] |  |
| N#Cc1c(N2CCN(C(=O)C(=O)N3CCOCC3)CC2)nc(-c2ccccc2)c2c1CCCC2 | inconclusive: 10 µM [inhibitor, partial curve, poor fit] |  |
| CCN(CC)S(=O)(=O)c1ccc(N(C)C)c(NS(=O)(=O)c2ccccc2C(F)(F)F)c1 | inconclusive: 14.1 µM [inhibitor, single point] |  |
| CCOC(=O)c1c(-c2ccccc2)oc2ccc(OCC(=O)NNC(=O)CCC(=O)O)cc12 | inconclusive: 22.4 µM [inhibitor, partial curve, poor fit] |  |
| Cc1oc(-c2ccc(Cl)cc2)cc1C(=O)/C(C#N)=C/Nc1cccc(OC(F)(F)F)c1 | inconclusive: 25.1 µM [inhibitor, partial curve, poor fit] |  |
| COc1ccc(OC)c(N/C(=N/C(=S)Nc2ccccc2)Nc2nc(C)cc(C)n2)c1 | inconclusive: 25.1 µM [inhibitor, partial curve, poor fit] |  |
| CC(C)c1nc(NC2CCCC2)ncc1C(=O)O | inconclusive: 31.6 µM [inhibitor, single point] |  |

| Compound | Potency | activity change, negative = inhibition |
| --- | --- | --- |
| O=C(Nc1ccc(Cl)c(-c2nc3ccccc3o2)c1)c1ccc(-c2cccc([N+](=O)[O-])c2)o1 | inconclusive: 14.1 µM [inhibitor, partial curve, poor fit] |  |
| O=C(Nc1ccc(F)c(Cl)c1)c1cnc(N2CCCCC2)c2ccccc12 | inconclusive: 31.6 µM [inhibitor, partial curve, poor fit] |  |
| Cc1ccsc1C(=O)NC1CCN(c2cc(-c3ccc(F)cc3)[nH]n2)C1 (configuration not stated) | inconclusive: 10 µM [inhibitor, partial curve] |  |
| Cc1cccc(C)c1NC(=O)CSc1nnc(-c2cccs2)n1-n1cccc1 | inactive |  |
| CCOc1cc(C(=O)Oc2ccc(C#N)cc2OC)cc(OCC)c1OCC | inactive |  |
| Cc1ccccc1Nc1c(-c2ccc(Br)cc2O)nc2sccn12 | inconclusive: 22.4 µM [inhibitor, partial curve, poor fit] |  |
| COc1ccc(Cl)cc1C(=O)N1CCCN(c2cc(-c3ccc(C)c(C)c3)[nH]n2)CC1 | inconclusive: 20 µM [inhibitor, single point] |  |
| COc1cccc(CNC(=O)c2c(C)noc2-c2ccccc2Cl)c1 | inactive |  |
| CCn1cc(-c2ccncc2)cc1C(=O)NCc1ccc(OC(C)C)cc1 | inconclusive: 20 µM [inhibitor, partial curve] |  |
| C=CC[N+]1(CC2C(C)C=C(C)CC2C)CCCCC1 (configuration not stated) | inactive |  |
| CNC(=O)[C@H]1C[C@H](Oc2cccnc2)CN1S(=O)(=O)c1ccc(F)cc1 | inactive |  |
| Cc1ccc2c(c1)N1C(=O)OC[C@@H]1CCN(Cc1ccccn1)C2 | inactive |  |
| Cc1ncc(CN2CCC(C(=O)Nc3cccc(-c4cc5ccccc5[nH]4)c3)CC2)cn1 | inconclusive: 15.8 µM [inhibitor, partial curve, poor fit] |  |
| CCOc1ccc(S(=O)(=O)N(C)CC(=O)N2CCN(C)CC2)cc1C | inactive |  |
| Cc1cccc(NC(=O)COc2ncnc3ccc(Br)cc23)c1C | inactive |  |
| Cc1ccc(Cl)cc1Nc1sc(C(=O)c2ccc(F)cc2)c(N)c1S(C)(=O)=O | inconclusive: 28.2 µM [inhibitor, partial curve, poor fit] |  |
| CCc1ccccc1NC(=O)Nc1cn(C)c(=O)c2ccccc12 | inconclusive: 31.6 µM [inhibitor, partial curve, poor fit] |  |
| CC1(C(=O)Nc2ccccc2)CN(Cc2ccccc2)Cc2ccc(N3CCOCC3)nc21 (configuration not stated) | active: 12.6 µM |  |
| N#C/C(=C\c1ccccc1Cl)C(=O)Nc1ccccn1 | inconclusive: 25.1 µM [inhibitor, partial curve, poor fit] |  |
| COCCNc1nc2cc(C(=O)N[C@@H]3CC[C@@H](N)C3)ccc2n1C | active: 22.4 µM |  |
| CC(C)OCc1ccccc1CNS(=O)(=O)c1ccc(Br)cc1Cl | inactive |  |
| O=C(c1cc(-c2ccco2)nc2ccccc12)N1CCCC(C(F)(F)F)C1 (configuration not stated) | inconclusive: 20 µM [inhibitor, partial curve, poor fit] |  |
| CN(C)CCn1nnnc1SCc1ccc(OCc2ccccn2)cc1 | inactive |  |

| Compound | Potency | activity change, negative = inhibition |
| --- | --- | --- |
| CCC(C)NC(=O)C1CCN(C(=O)C(C)(C)C)CC1 (configuration not stated) | inactive |  |
| COC(=O)c1ccccc1NCC(=O)NC(=O)NC(C)C | inconclusive: 22.4 µM [inhibitor, partial curve, poor fit] |  |
| O=C(OCc1nnnn1-c1ccccc1)C1(c2ccccc2)CCC1 | inactive |  |
| O=C(NCCCN1CCCc2ccccc21)C1Cn2cccc2C(=O)N1Cc1cccnc1 (configuration not stated) | inconclusive: 28.2 µM [inhibitor, single point] |  |
| COc1ccccc1-c1ccnc(N[C@H]2CO[C@H]3[C@@H]2OC[C@@H]3NC(=O)N2CCOCC2)n1 | active: 25.1 µM |  |
| CCCCOC(=O)c1ccc(NC(=S)N2CCN(c3ncc4c(=O)c(C(=O)O)cn(CC)c4n3)CC2)cc1 | inconclusive: 28.2 µM [inhibitor, partial curve, poor fit] |  |
| CCOc1ccc(N2CC(C(=O)Nc3ccc(Cl)cn3)CC2=O)cc1 (configuration not stated) | inactive |  |
| CN(C)c1ccc(CC(=O)N2CCn3nc(Cc4ccccc4)cc3C2)cc1 | inconclusive: 15.8 µM [inhibitor, partial curve] |  |
| O=C(Nc1cccc2ncccc12)C1CCCN(S(=O)(=O)c2ccc(Br)cc2)C1 (configuration not stated) | inactive |  |
| CCn1ncc(CN2CC[C@H]3C(=O)NCCCCCCN(Cc4ccncc4)[C@@H]3C2)c1C | inconclusive: 39.8 µM [inhibitor, single point] |  |
| CCn1cnc2c1c(=O)n(CC(=O)Nc1ccc(OC(F)F)cc1)c(=O)n2Cc1ccccc1 | inactive |  |
| CCN1c2cc(C(=O)Nc3ccc(Br)cc3)ccc2C(=O)N2CCCC21 (configuration not stated) | inconclusive: 3.16 µM [inhibitor, full curve, poor fit] |  |
| COc1ccc(NC(=O)c2sc3nc4c(cc3c2N)CCCCCC4)c(OC)c1 | inconclusive: 31.6 µM [inhibitor, partial curve, poor fit] |  |
| COc1ccc(-c2cc3c(ccc4ccccc43)oc2=O)cc1 | inconclusive: 20 µM [inhibitor, partial curve, poor fit] |  |
| Cc1cc(Nc2cccc(Cl)c2)nc2ccc(NC(=O)Cc3ccc(Cl)cc3)cc12 | inconclusive: 10 µM [inhibitor, partial curve, poor fit] |  |
| Brc1ccc(-c2noc(Cc3cccs3)n2)o1 | inconclusive: 5.01 µM [inhibitor, partial curve, poor fit] |  |
| CCOc1ccc(Nc2nc3ccccc3nc2NS(=O)(=O)c2cccc(Cl)c2)cc1 | inactive |  |
| COCCNC(=O)c1ccc(-n2c(-c3ccccc3)cc3c2CCC(C)C3)cc1 (configuration not stated) |  | inconclusive: -43% [inhibitor] |
| COCCCNC(=O)c1c(-c2ccccc2)c(-c2ccccc2)nn(C)c1=O | inactive |  |
| c1ccc(CN2C[C@H]3CCN(C4CCOCC4)C[C@H]32)cc1 | inconclusive: 12.6 µM [inhibitor, partial curve, poor fit] |  |
| COc1cc(NC(=O)c2nn(C)c3c2CS(=O)(=O)c2ccccc2-3)cc(OC)c1 | inconclusive: 39.8 µM [inhibitor, single point] |  |
